Source: the supplement of paper PMC11417369
Some of the results follow.

system: PF3D7_0420300 AP2 domain 1 (GST-tagged); test: gcPBM binding intensity (ln(normalized median fluorescence intensity)); higher = stronger DNA binding
Method in brief: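 GST-fused DNA-binding domains of P. falciparum, expressed in E. coli, were applied at about 25 μg on average for 1 h to an Agilent 4 × 180k array of primer-extended double-stranded 36-bp intergenic genomic probes and negative controls. Binding intensity is the highest Masliner-normalised natural-log median intensity across replicate spots of either probe orientation, measured with Alexa488 anti-GST antibody and a 488 nm scan.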

| Sequence | gcPBM binding intensity (ln) |
| --- | --- |
| TAAATATATTAAGCTTGTACATGAAAAAAAAAAAAA [XGTACX_site3264] | 9 |
| TATGTATATAAATTAACACACATATGTGGTTAATAG [CACACA_site3143] | 9.24 |
| TACCTTTTTTGTTTTATGCACACCATATAACCAAGG [CACACA_site30] | 9.3 |
| TTTTTTTTTCCGTGTTGTACAAAAAAAAAGATTTTG [XGTACX_site3925] | 8.86 |
| AAGAAATATTTATACACACACACAAACATATAAATA [CACACA_site6981] | 10.2 |
| TATAACTATTCACAGACATGCACATAATAACAATAA [TGCATGCA_site207] | 9.34 |
| TAAAAAAAAAAAAAAGCATGCTATATTATATTACAC [TGCATGCA_site241] | 9.26 |
| TTTTTTTAAATATACACACACATTTATACCTATATA [CACACA_site7572] | 9.72 |
| TATAACTATAAAAGTAGTACACATATATATTATATA [XGTACX_site1391] | 9.18 |
| AATGGTTTAAAATACTGTACATATATATAAAAGTAA [XGTACX_site6187] | 9.31 |
| TTCCTAATTGACAACACACACAACAAAAAAGGGATT [CACACA_site1279] | 9.98 |
| CACTAAAATAAACACACACACACACCGATATATATA [CACACA_site9379] | 10.3 |
| TATATTTATATGATAACACACATAAATTATACATTT [CACACA_site1671] | 9.31 |
| TTAATTTTATTTTTTTGTACACATAAATATTATAAA [XGTACX_site4680] | 9.05 |
| AAAAAAAAAAAACACACACACACACTAATACATACA [CACACA_site8135] | 10.1 |
| TTTCCCTACCAAAAATGTACTTATAAGCGTTTTTAT [XGTACX_site739] | 9.18 |
| TTTTTAAATTATTGCACACAAAAATGAAAGGAAAAA [CACACA_site1455] | 9.26 |
| TACATATTTATATACACACACACCGTCCGTGTTAAA [CACACA_site7413] | 9.92 |
| CTAAAAATCTTTTGTTGTACTTTTAGATAATCAGGA [XGTACX_site3968] | 8.77 |
| AAGTAAAAAAATAGCACACACACAAAAACACAGACA [CACACA_site4839] | 10.2 |
| AAAGGGATGTTCATTCTTTTTTTTTTTTTTGTATAT [CACACA_negctrl_site511] | 9.28 |
| TATATTTTTTTTGTGCGTACATACCATTTTAATAAT [XGTACX_site2751] | 9.27 |
| CACAAACAAAAACACACACACACACCCACAAAAATG [CACACA_site2429] | 10.1 |

| Sequence | gcPBM binding intensity (ln) |
| --- | --- |
| AATTATTGTATGCTATACGTTCCCCTCTAATTTATC [CACACA_negctrl_site1052] | 9.46 |
| TATTATTTTATGAATACACACATATACGAAAATATT [CACACA_site964] | 9.45 |
| ATTGGGTACAAATACACACACATATAAATATTAATA [CACACA_site7173] | 9.81 |
| TATTTTTATATAATGTGTACTTATACCTTATTTTTT [XGTACX_site1658] | 9.3 |
| GAATGAAAATAAAATTGTACACATATCTATATCTAT [XGTACX_site2642] | 9.23 |
| TATATTATATGTATTGCACACCTTCAACAACTACTT [CACACA_site8121] | 9.49 |
| AAAAAAAAAAAAAGTTGTACATTATTTTCCTAATTC [XGTACX_site7998] | 9.03 |
| TTTAATTAGGATAATTGTACTGAACTAAGTATATTT [XGTACX_site1871] | 9.03 |
| ATACATATATATGTGTGTACATATGTGTATACATTT [XGTACX_site6544] | 9.49 |
| ATATGTATTAAGTGTACACATATAATGGGTTTGTTA [CACACA_site5682] | 9.34 |
| TTTTATAAATCTAAACGTATCTAAATGAATAATTAA [GTGCAC_negctrl_site44] | 8.84 |
| ATTTTCACCTGAACGGTGCATATTTAATTTTAGGTT | 9.49 |
| ATATATGTACAAATTGTGCGCAATAATTTTGTCTTT | 9.28 |
| ATAGAAACATATTGACGTACAGTATAATAATACAGT [XGTACX_site197] | 9.51 |
| AAATCAACTTATTTTTGTACATATATTTATTATATA [XGTACX_site2925] | 9.48 |
| ATATATTATAGAGGTGTGCACTACATACATTATAAT [GTGCAC_site9991] | 9.54 |
| GAAAAATTAATAAATAAACACACATATATATATATA [CACACA_site8835] | 9.38 |
| TCTTTATGTAAGGTCTTCCACAAAAAAATTAAAAAA [TGCATGCA_negctrl_site229] | 8.59 |
| AGGAAAATAGAAAAAGCACACATATATTTTGGAATG [CACACA_site8080] | 9.66 |
| ACTTCATTTTTTTTATGTACACAGAAGATTTACAAA [XGTACX_site4021] | 9.15 |
| AAAATAATAATTAATACATGCATTAATTCTTTTTTT [TGCATGCA_site741] | 9.07 |
| ACATATGTATGAATATCAAAAAATCCCTATTTAATG [GTGCAC_negctrl_site27] | 9.07 |
